The whole screen tested about 280,000 compounds, of which about 100 (0.036%) were called active. Inconclusive results, whose numbers are uncertain, are shown with a selection of clear calls. The call rests on the fitted dose curve; in most records, active means well fitted inhibition curve with a large enough effect in the signal ratio, with a control signal flat (not every such curve was filed as active); inconclusive means small, poorly fitted or top-dose-only effect, or effect the other way, or a change in a side signal; inactive means no such curve, though single readings can be large or run the other way; the % refers to the signal ratio. Potencies beside an inconclusive call are fits to weak or partial responses and may not hold up. “Side channel” marks fits to a control or component signal instead of the main read-out.
biological target: Muscleblind-like protein 1 (Homo sapiens) (UniProt Q9NR56); assay: qHTS Assay for Inhibitors of MBNL1-poly(CUG) RNA binding; details: TR-FRET MBNL1-His/biotin-(CUG)12 binding, 665/545 ratio; activity change, negative = inhibition: at 57.5 µM (top of the series)
Sequence of UniProt Q9NR56 (Q9NR56 whole entry, looked up): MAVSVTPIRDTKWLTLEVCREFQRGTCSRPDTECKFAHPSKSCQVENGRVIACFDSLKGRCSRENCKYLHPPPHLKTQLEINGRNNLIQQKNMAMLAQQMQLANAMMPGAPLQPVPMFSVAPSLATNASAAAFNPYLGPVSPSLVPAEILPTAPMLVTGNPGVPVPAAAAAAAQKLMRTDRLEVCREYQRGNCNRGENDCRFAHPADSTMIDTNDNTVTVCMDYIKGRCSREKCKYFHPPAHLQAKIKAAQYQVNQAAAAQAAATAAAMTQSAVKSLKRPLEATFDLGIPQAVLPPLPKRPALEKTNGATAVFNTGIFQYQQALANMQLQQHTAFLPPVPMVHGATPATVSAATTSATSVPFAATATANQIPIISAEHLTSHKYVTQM
From the text: NIH Chemical Genomics Center [NCGC] NIH Molecular Libraries Probe Production Centers Network [MLPCN] MLPCN Grant: R03 MH087421-01 Assay Submitter (PI): Charles Thornton NCGC Assay Overview: Expanded CTG repeats in the 3' untranslated region of the DM protein kinase (DMPK) gene causes type I myotonic dystrophy (DM1). DM1 is a multi-systemic disease with a prevalence of 1/7000. Clinical features include myotonia, progressive muscle weakness and wasting, cardiac arrhythmia, insulin resistance, hypersomnolence, cataracts, and other symptoms. The pathogenic effect of expanded CTG repeats stems from deleterious effects of the mutant transcript. CUGexp mRNA accumulates in nuclear foci and sequesters proteins of the muscleblind family, of which MBNL1 is the most common family member in skeletal muscles. The binding interaction between MBNL1 and CUGexp tracts leads to deregulation of alternative splicing and is therefore a key molecular step in the pathogenesis of DM1. To target this binding interaction, we optimized a protein-RNA binding assay in 1536-well format for identification of small molecule inhibitors of biotinylated (CUG)12 and his-tagged MBNL1 binding. Protein-RNA complex of MBNL1-His and Biotin-(CUG)12 captures the detection reagents terbium-labeled anti-His antibody and streptavidin conjugated XL665. This brings the terbium label within close proximity to XL665 to allow time-resolved fluorescence resonance energy transfer (TR-FRET). Inhibitors of MBNL1-(CUG)12 binding will disrupt TR-FRET.
NCGC Assay Protocol Summary: This is a TR-FRET binding assay with MBNL1-His and Biotin-(CUG)12 RNA. The assay uses a ratiometric measurement. In the presence of MBNL1-(CUG)12 complex, the excitation energy is transferred to the XL665 acceptor label, causing emission at 665nm, while the 545nm donor signal […]. Data were normalized to the controls for basal activity (buffer only) and 100% activity (with MBNL1-(CUG)12). […] The final titration was 92 nM to 58 uM. (3) Add 1 ul of terbium labeled anti-His antibody (0.055 ng/ul final concentration) (4) Add 1 ul of streptavidin-XL665 (5 nM final concentration) (5) Incubate 60 min at room temperature (6) Detect the assay plate in a EnVision plate reader (PerkinElmer) with Ex=340 nm, Em1=665 nm and Em2=545 nm. Keywords: mytonic dystrophy type I, DM1, muscleblind like 1, MBNL1, CUG expansion, protein-RNA binding inhibitor, high throughput screening, MLSMR, MLSCN, NIH Roadmap, qHTS and NCGC
On the % scale 0 is the no-effect control and ±100 the full control effect; potency means the concentration at half of the fitted maximal effect; tags describe the fitted curve by direction and shape or compound fluorescence and quenching.

| SMILES | Potency | activity change, negative = inhibition |
| --- | --- | --- |
| CN1C(=O)C(O)(CC(=O)c2cccc(-n3cccc3)c2)c2ccccc21 (centres undefined) | inconclusive: 2.24 µM [quencher, side channel, partial curve] |  |
| C=CCn1c(SCC(=O)Nc2nc(C)cs2)nnc1C(NC(=O)c1ccccc1)C(C)C (centres undefined) | inconclusive: 3.55 µM [quencher, side channel, single point] |  |
| O=C(Cn1nc(-c2ccco2)ccc1=O)Nc1cc(Cl)ccc1Cl | inconclusive: 6.31 µM [quencher, side channel, partial curve] |  |
| O=C(O)C1CC(O)CN1c1nc(Cl)ccc1[N+](=O)[O-] (centres undefined) | inconclusive: 25.1 µM [quencher, side channel, single point] |  |
| COc1ccccc1Cn1c(=S)[nH]c2ccc(F)cc2c1=O | inconclusive: 17.8 µM [fluorescent, side channel, partial curve] |  |
| Cc1nc([N+](=O)[O-])cn1Cc1cccc([N+](=O)[O-])c1 | inconclusive: 28.2 µM [quencher, single point] |  |
| Cc1ccc2c(c1)N(S(=O)(=O)c1ccc(CN3C(=O)c4cccnc4C3=O)s1)CCO2 | inconclusive: 25.1 µM [quencher, side channel, single point] |  |
| COc1ccc(S(=O)(=O)NC(C)C(=O)Nc2cccc([N+](=O)[O-])c2)cc1 (centres undefined) | inconclusive: 25.1 µM [quencher, side channel, partial curve] |  |
| Cc1ccc(C)c(Nc2c([N+](=O)[O-])cc(C(=O)N3CC(=O)Nc4ccccc43)cc2[N+](=O)[O-])c1 | inconclusive: 15.8 µM [quencher, side channel, partial curve] |  |
| COc1ccc(CCNC(=O)C2CCN(S(=O)(=O)c3cccc4nsnc34)CC2)cc1OC | inconclusive: 14.1 µM [quencher, side channel, partial curve] |  |
| CC(=O)Oc1ccc2nc(-c3ccco3)oc(=O)c2c1 |  | inactive: -7.4% |
| Cc1ccc(NCc2ccccc2OCc2ccccc2F)cc1 |  | inactive: -8.4% |
| COc1ccc(C(=O)c2sc3nc(-c4ccccc4)ccc3c2N)cc1OC |  | inactive: 6.83% |
| O=c1[nH]n2c(=O)c3c([nH]c2c1N=Nc1cccc(C(F)(F)F)c1)CCCC3 | inconclusive: 0.631 µM [quencher, side channel, full curve, poor fit] |  |
| CCCOC(=O)c1ccc(NC(=O)c2c(Cl)ccc(Cl)c2OC)cc1 | inconclusive: 1.58 µM [fluorescent, side channel, single point] |  |
| Cc1ccc(NC(=O)C2=CCN(S(=O)(=O)c3ccc(F)cc3)CC2)c(C)c1 | inconclusive: 100 µM [inhibitor, partial curve] |  |
| COCCNC(=S)N1CCN(C(=O)C(=O)Nc2ccc(C(=O)OC)cc2)CC1 | inconclusive: 0.224 µM [fluorescent, side channel, partial curve] |  |
| O=C(CN1C(=O)c2ccccc2C1=O)NC1CCCCC1 |  | inactive: 11.8% |
| CN(C)S(=O)(=O)c1ccc(C(=O)Nc2ccccc2[N+](=O)[O-])cc1 | inconclusive: 11.2 µM [quencher, side channel, partial curve] |  |
| COC(=O)[C@@H]1C[C@H]1[C@@H](NC(=O)c1ccccc1)c1ccccc1 | inconclusive: 79.4 µM [inhibitor, single point] |  |
| Cc1ccc[n+](CC(=O)c2cc3ccccc3oc2=O)c1 | inconclusive: 15.8 µM [quencher, partial curve] |  |
| CN1CCc2c(sc3c2c(=O)n(-c2ccccc2)c2nncn32)C1 | inconclusive: 31.6 µM [quencher, side channel, partial curve, poor fit] |  |
| O=[N+]([O-])c1cc(Br)c2nsnc2c1N1CCOCC1 | inconclusive: 7.94 µM [quencher, side channel, partial curve] |  |
| CC(C(=O)N=Nc1c(O)[nH]c2ccccc12)n1cnc2ccccc2c1=O (centres undefined) | inconclusive: 15.8 µM [quencher, side channel, partial curve] |  |
| O=C(Nc1nnc(S(=O)(=O)N2CCCC2)s1)c1cccc([N+](=O)[O-])c1 | inconclusive: 20 µM [quencher, side channel, partial curve] |  |
| CCN1/C(=C/C=C/C=C/c2sc3ccccc3[n+]2CC)Sc2ccccc21 | inconclusive: 14.1 µM [quencher, side channel, partial curve] |  |
| C/C(=C\C=C(C#N)C#N)c1cc(C#N)c(N)o1 | inconclusive: 3.16 µM [quencher, full curve] |  |
| N=c1c(C(=O)NCCc2ccccc2)cc2c(=O)n3ccccc3nc2n1CCCN1CCOCC1 | inconclusive: 12.6 µM [quencher, side channel, partial curve] |  |
| Cc1ccc(C)c(C2C(=O)c3ccccc3C2=O)c1 | inconclusive: 12.6 µM [quencher, side channel, partial curve] |  |

Reference: PubChem BioAssay AID2675 (National Center for Advancing Translational Sciences (NCATS), 2010)
